Results reported in article PMC4336329 (PLoS ONE, 2015).
Screen size: about 310,000 compounds; about 14,000 (4.5%) showed an effect of 50% or more. Effects have a minus sign here. The list shows a part of the results.

Biological target: human ether-à-go-go-related gene (hERG) potassium channel (human, UniProt Q12809)
Test: primary screen, population patch clamp on CHO cells stably expressing hERG
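Also: peak tail current of the secondary pulse compared with the same well before compound.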

Chain of human ether-à-go-go-related gene (hERG) potassium channel (Q12809 whole entry, looked up): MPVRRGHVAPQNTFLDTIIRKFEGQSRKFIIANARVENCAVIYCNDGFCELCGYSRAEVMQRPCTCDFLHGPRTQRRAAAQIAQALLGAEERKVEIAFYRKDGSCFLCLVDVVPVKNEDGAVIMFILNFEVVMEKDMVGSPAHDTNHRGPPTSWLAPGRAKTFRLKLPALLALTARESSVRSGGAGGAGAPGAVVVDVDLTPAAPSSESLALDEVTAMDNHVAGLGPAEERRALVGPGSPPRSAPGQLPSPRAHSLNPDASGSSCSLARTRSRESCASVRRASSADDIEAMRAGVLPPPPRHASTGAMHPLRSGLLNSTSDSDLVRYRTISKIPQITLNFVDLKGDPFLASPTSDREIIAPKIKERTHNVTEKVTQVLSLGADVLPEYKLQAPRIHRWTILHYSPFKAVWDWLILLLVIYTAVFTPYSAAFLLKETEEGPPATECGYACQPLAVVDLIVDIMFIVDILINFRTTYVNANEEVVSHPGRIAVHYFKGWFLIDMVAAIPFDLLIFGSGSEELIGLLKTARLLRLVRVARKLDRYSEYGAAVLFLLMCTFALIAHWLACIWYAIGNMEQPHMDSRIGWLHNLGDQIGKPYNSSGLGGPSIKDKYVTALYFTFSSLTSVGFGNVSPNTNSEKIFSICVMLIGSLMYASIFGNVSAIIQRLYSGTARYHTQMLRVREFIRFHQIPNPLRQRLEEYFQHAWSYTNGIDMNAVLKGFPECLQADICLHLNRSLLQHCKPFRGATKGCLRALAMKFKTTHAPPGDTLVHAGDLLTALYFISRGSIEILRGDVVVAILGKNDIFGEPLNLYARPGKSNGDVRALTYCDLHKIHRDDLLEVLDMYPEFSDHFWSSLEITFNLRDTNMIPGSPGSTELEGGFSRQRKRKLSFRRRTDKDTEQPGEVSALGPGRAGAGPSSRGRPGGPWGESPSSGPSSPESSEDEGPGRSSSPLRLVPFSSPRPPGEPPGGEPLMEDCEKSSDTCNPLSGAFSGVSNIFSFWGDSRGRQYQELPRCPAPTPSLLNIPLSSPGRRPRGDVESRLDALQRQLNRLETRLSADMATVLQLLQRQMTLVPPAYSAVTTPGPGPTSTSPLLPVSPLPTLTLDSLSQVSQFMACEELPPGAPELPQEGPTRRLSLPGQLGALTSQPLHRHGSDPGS

Structure (SMILES)	hERG current change (%, negative = inhibition) at 10uM
CCOC(=O)c1cnc(SC)nc1Oc1cccc(NS(=O)(=O)c2ccc(Cl)cc2)c1	-14.7%
CC(C)(C)c1ccc(C(=O)N/C(=C\c2cccs2)C(=O)N2CCOCC2)cc1	-7.22%
CC(=O)c1c(N(C)C)ccnc1C(F)(F)F	7.93%
COc1ccccc1NC(=S)N(C(C)C)C(C)c1ccccn1 (stereo not drawn)	-9.06%
CCNC(=O)CCC(=O)Nc1cc(Cl)ccc1C	18%
COc1ccc(N)cc1NC(=O)CN1CCCC1	19.3%
CCN(CC)c1c(-c2ccccc2)c2cc(C)ccc2[nH]c1=O	2.12%
COc1cc(CN2CCN(C(=O)COc3ccccc3)CC2)cc(OC)c1OC	-14.1%
O=C(Oc1ccc(-c2cnc3ccccc3n2)cc1)c1ccc(Br)o1	25.5%
Cc1ccc(C(=O)N(CC(=O)NC2CCCC2)c2cccc(F)c2)s1	7.23%
COc1ccccc1-c1csc(NC(=O)c2cc(-c3cccs3)nc3ccccc23)n1	8.88%
CCOC(=O)Cn1c2c(c(-c3ccccc3OC)cc1=O)CCCC2	2.38%
COc1ccc(C(=O)CSc2nnc(-c3cc4ccccc4cc3O)n2Cc2ccco2)cc1	-22.4%
O=C1C2=C(c3ccccc31)[N+](=O)[C@@H]1CCCC[C@@H]1N2[O-]	14.9%
O=c1c2cnn(-c3ccccc3)c2ncn1Cc1ccccc1F	16.5%
Cc1ccc(S(=O)(=O)CCC(=O)Nc2ccccc2N2CCCC2)cc1	-10.5%
Cc1ccc(C(=O)c2cnc3cc4c(cc3c2S(=O)(=O)c2ccccc2)OCCO4)cc1	27.9%
O=C(NCCCCc1ccccc1)C1CC(c2ccc([N+](=O)[O-])cc2)=NO1 (stereo not drawn)	-25%
CC(C)[C@@H](CO)NC(=O)c1ccc2c3n(nc2c1)-c1ccccc1CO3	9.78%
CN(C)S(=O)(=O)c1cc(NC(=O)CN2CCN(c3ccccc3O)CC2)ccc1Cl	-24.3%
COc1ccc(NC(=O)CN(C)C(=O)CSCc2c(C)noc2C)cc1	-13.9%
CCOC(=O)C1CCN(C(=O)CCc2nnc3ccc(NCc4ccco4)nn23)CC1	-40.6%
O=C(CCC1CCCCC1)NCCS(=O)(=O)N1CCN(c2ccc(F)cc2)CC1	-16.2%
O=C(NCCCN1CCOCC1)/C(=C/c1cccs1)NC(=O)c1ccccc1	-21.8%
